Results as given in PubChem BioAssay AID686979 (National Center for Advancing Translational Sciences (NCATS), 2013).
The whole screen tested about 420,000 compounds, of which about 50,000 (12%) were called active. The shares of active, inactive and inconclusive entries below differ from those in the screen. Calls follow the shape of the dose curve; as a rule, active = well fitted inhibition curve with a large enough effect; inconclusive = small, poorly fitted or top-dose-only effect; inactive = flat fitted curve, though single readings scatter. No potency is given beside an inconclusive call; the fits are too rough.

Test: qHTS for Inhibitors of human tyrosyl-DNA phosphodiesterase 1 (TDP1): qHTS in cells in presence of CPT; also: nearly all actives have a fitted effect of over 55% in size
Settings: chicken DT40 Tdp1-/-;hTDP1 cells + 20 nM CPT, ATP luminescence, 48 h; activity change, negative = growth inhibition: at 46.2 µM (top of the series)
How it was run: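 Chicken DT40 Tdp1-/- cells complemented with human TDP1, 400 cells/well, exposed to compounds plus 20 nM camptothecin for at least 48 h at 37 C; viability read as ATP content by CellTiter-Glo luminescence.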
% is scaled to controls: 0 for no effect and ±100 for the full control effect; potency is read from the fitted curve at half-maximal effect; tags tell the direction and shape of the fitted curve.

Row | SMILES | Potency | activity change, negative = growth inhibition
1 | COc1ccc(CC(=O)n2[nH]c(=O)cc(C)c2=O)cc1OC | inconclusive [inhibitor, single point] | 
2 | C[n+]1ccc(/C=C/c2ccccc2O)c2ccccc21 | inconclusive [inhibitor, single point] | 
3 | CN(C)c1cc(O)c(C(=S)Nc2ccccc2)c(N(C)C)c1 | active: 16.4 µM | 
4 | COCCCn1c(=S)[nH]c2ncccc2c1=O | inactive | 
5 | Cc1c(C(=O)NCCc2ccc(Cl)cc2)sc2nc3n(c(=O)c12)CCC3 | inconclusive [inhibitor, single point] | 
6 | Cc1cccc(CSc2cn(CC(=O)N3CCCC3)c3ccccc23)c1 | active: 25.9 µM | 
7 | O=C(Nc1c(-c2ccc3c(c2)OCO3)[nH][nH]c1=O)c1ccccc1 | inconclusive [inhibitor, single point] | 
8 | Cc1ccc(S(=O)(=O)NCc2ccc(C(=O)NC3CCCCC3)cc2)cc1 | inconclusive [inhibitor, single point] | 
9 | S=C(NCCc1ccc(Cl)cc1)NC1CCCCC1 | inconclusive [inhibitor, single point] | 
10 | COCCNC(=O)/C(C#N)=C/c1c(N2CCCCCC2)nc2c(C)cccn2c1=O | inconclusive [inhibitor, single point] | 
11 | Nc1nc(-c2ccc(F)cc2)cs1 | inactive | 
12 | Cc1cc(C)c(NC(=O)CNC(=O)COC(=O)CN2C(=O)NC3(CCCC3)C2=O)c(C)c1 | inactive | 
13 | COc1ccccc1N1CCN(Cc2cc(=O)c(OCC(=O)Nc3ccccc3)co2)CC1 | inconclusive [inhibitor, partial curve] | 
14 | COc1ccc(NC(=O)C2CCCN(c3ncnc4onc(-c5ccc(F)cc5)c34)C2)cc1 (stereo unspecified) | inconclusive [inhibitor, single point] | 
15 | CCOC(=O)c1cc(C#N)c(N2CCN(c3ccccn3)CC2)nc1-c1ccccc1 | inconclusive [inhibitor, single point] | 
16 | COc1cc(OC)c(-c2nnc(-c3ccc(OC)c(OC)c3OC)o2)cc1OC | active: 14.1 µM | 
17 | COc1ccccc1NC(=O)c1cccc(S(=O)(=O)N2CCN(Cc3ccccc3)CC2)c1 | inconclusive [inhibitor, single point] | 
18 | CCOc1ccc(Nc2nc(Cc3nnc(SCC(=O)NC4CCCCC4)n3C)cs2)cc1 | inactive | 
19 | N#C/C(=C/C1=C(N2CCOCC2)C(=C/c2ccccc2)/CC1)C(=O)Nc1ccccc1F | active: 13 µM | 
20 | CC(O)c1cccc(N=Cc2ccc3ccccc3c2O)c1 (stereo unspecified) | inactive | 
21 | N#C/C(=C(/O)CN1CCOCC1)c1nc(-c2ccccc2)cs1 | inconclusive [inhibitor, single point] | 
22 | O=C(/C=C/c1ccc(Br)cc1)c1ccco1 | active: 7.31 µM | 
23 | CCC1Oc2ccc(C)cc2N(CC(=O)N2CCCC2)C1=O (stereo unspecified) | inactive | 
24 | Cc1nc(N2CCN(c3ccccn3)CC2)c2c(C)c(C(=O)Nc3ccc(F)cc3Cl)sc2n1 | active: 23.1 µM | 
25 | Clc1cccc(/C=N/Nc2nc(Cl)nc3ccccc23)c1 | active: 23.1 µM | 
26 | CCOC(=O)c1oc2cc(O)c(CC)cc2c(=O)c1-c1ccc2c(c1)OCCO2 | inactive | 

Row | SMILES | Potency | activity change, negative = growth inhibition
27 | CCc1cccc(NC(=O)COC(=O)c2c(-c3ccccc3)noc2C)c1 | inconclusive [inhibitor, single point] | 
28 | O=C(c1cc(-c2ccccc2)n[nH]1)N1CCc2c([nH]c3ccccc23)C1c1ccccn1 (stereo unspecified) | active: 18.4 µM | 
29 | CCOc1cccc(CC(=O)N2CCc3c([nH]c4ccccc34)C2c2ccc(F)cc2)c1OCC (stereo unspecified) | inconclusive [inhibitor, single point] | 
30 | CCOc1ccc(N(CC)S(=O)(=O)N2CCCC(C(=O)NCc3ccccc3Cl)C2)cc1 (stereo unspecified) | active: 20.6 µM | 
31 | COc1cc(OC)c(C(=O)OCC(=O)Nc2cccc(S(=O)(=O)NC3=NCCCCC3)c2)cc1OC | inconclusive [inhibitor, single point] | 
32 | Cc1cc(C)c(OCC(=O)Nc2cccc(NC(=O)c3ccco3)c2)c(Br)c1 | active: 23.1 µM | 
33 | CCc1ccccc1NC(=O)c1ccc2nc(CCc3ccccc3)oc2c1 | inconclusive [inhibitor, single point] | 
34 | Cc1ccc(C(=O)COC(=O)C(CC(C)C)NC(=O)C2CCC(C)CC2)cc1 (stereo unspecified) | inconclusive [inhibitor, partial curve] | 
35 | CCCNC(=O)C1(C)CCN(C(=O)Cc2ccc3ccccc3c2)C1 (stereo unspecified) |  | inconclusive: -31.5% [inhibitor]
36 | CCOc1ccc(CC(=O)Nc2c(C(=O)c3ccc(C)cc3)oc3ccccc23)cc1OCC | inconclusive [inhibitor, single point] | 
37 | S=C1SCN(Cc2ccccn2)CN1Cc1ccco1 | active: 6.51 µM | 
38 | Cc1ccc(-c2c(C)cc3oc(=O)cc(-c4ccccc4)c3c2C)cc1 | inconclusive [inhibitor, single point] | 
39 | CCCCNC(=O)CCn1c(=O)c2ccccc2n(Cc2ccccc2C#N)c1=O | inactive | 
40 | CN(Cc1ccc(Cl)c(Cl)c1)C(=O)c1ccccc1SCC(=O)N1CCCC1 | inconclusive [inhibitor, single point] | 
41 | CCCNC(=O)C(Cc1ccc(I)cc1)NC(=O)C1CC1 (stereo unspecified) | inactive | 
42 | CC1=Nc2ccc3ccccc3c2C1(C)C | inactive | 
43 | CC(=O)c1cccc(NC(=O)C2CCCN(c3nnc(-n4cccc4)s3)C2)c1 (stereo unspecified) | inconclusive [inhibitor, single point] | 
44 | O=C(NCc1ccc(F)c(F)c1)C1Cc2c(-c3ccc4c(c3)OCO4)ccnc2O1 (stereo unspecified) | active: 2.31 µM | 
45 | O=C(CCCN1Cc2ccccc2C1)c1ccc(F)cc1 | inconclusive [inhibitor, single point] | 
46 | CCN(CC)C(=O)c1nc(-c2cccc3ccccc23)no1 | inconclusive [inhibitor, single point] | 
47 | COc1ccc(-c2csc(NC(=O)CS(=O)(=O)c3ccccc3)n2)c(OC)c1 | inconclusive [inhibitor, single point] | 
48 | C[C@H](C(=O)NCc1ccccc1)C(=O)c1ccccc1 | inactive | 
49 | COC(=O)c1ccccc1NC(=O)C1CCCN(S(=O)(=O)c2ccc(OC)cc2)C1 (stereo unspecified) | active: 18.4 µM | 
50 | O=C(NCCc1ccccc1Cl)c1cc(COc2ccc(F)cc2F)on1 | inconclusive [inhibitor, single point] | 
51 | CCOc1ccc(NS(=O)(=O)c2cc(Br)cc3c2N(C(=O)C2CC2)CC3)cc1 | inconclusive [inhibitor, partial curve, poor fit] | 
52 | CNC(=O)OCc1nc(SSC(C)(C)C)n(C)c1COC(=O)NC | active: 2.06 µM | 

Row | SMILES | Potency | activity change, negative = growth inhibition
53 | CC1(Cc2ccccc2OC(F)(F)F)C(=O)Nc2ccc(OC(F)(F)F)cc21 (stereo unspecified) | active: 20.6 µM | 
54 | CC(C)(C)c1ccc2c(c1)OC(C(=O)N/N=C\c1ccncc1)CO2 (stereo unspecified) | inconclusive [inhibitor, partial curve] | 
55 | CCn1c(CC(=O)Nc2ccc(C)cc2)n[nH]c1=S | inactive | 
56 | Cn1c(=O)cc(OCCCC(=O)Nc2ccc(F)cc2)c2ccccc21 | active: 13 µM | 
57 | COc1ccccc1N1CCN(C(c2ccc(N(C)C)cc2)c2nnnn2CCc2ccccc2)CC1 (stereo unspecified) | inactive | 
58 | CCN(CC)c1ccc(NS(=O)(=O)c2ccc(-c3ccc(=O)[nH]n3)o2)c(C)c1 | inconclusive [inhibitor, single point] | 
59 | Cc1c2c([n+]3n1CCC3)CC(C)(C)CC2=O | inactive | 
60 | CN(C)c1ccc(C=c2c3cc([N+](=O)[O-])ccc3n3c2cc(-c2ccccc2)[n+]3C)cc1 | active: 2.91 µM | 
61 | CC(C)CCn1c(SCC(=O)c2ccccc2)nc2c1c(=O)[nH]c(=O)n2C | inconclusive [inhibitor, single point] | 
62 | CC(=O)c1cccc(Nc2c([N+](=O)[O-])c(=O)oc3ccccc23)c1 | inconclusive [inhibitor, single point] | 
63 | Cc1ccc(-c2noc(CNC(=O)c3ccc4c(c3)OCO4)n2)cc1 | inactive | 
64 | Cc1nnc(SCC(=O)Nc2nc(-c3ccc(F)cc3)cs2)[nH]c1=O | inactive | 
65 | O=C(CSc1nnc(COc2ccccc2)o1)NCCc1ccccc1 | active: 8.2 µM | 
66 | O=C(Nc1ccc(CN2CCOCC2)cc1)c1cc2ccccc2o1 | inconclusive [inhibitor, partial curve, poor fit] | 
67 | COCCOC(=O)C1=C(C)NC2=C(C(=O)CCC2)C1c1cc2c(cc1Br)OCO2 (stereo unspecified) | inactive | 
68 | CC(=O)c1sc(C(C)(C)C)cc1NC(=O)/C=C/C(=O)O | inactive | 
69 | O=C(Nc1ncccc1O)c1ccc2c(c1)OCCO2 | active: 23.1 µM | 
70 | O=C(/C=C/c1ccccc1)NC(NC(=S)Nc1ccc(Cl)cc1)C(Cl)(Cl)Cl (stereo unspecified) | active: 16.4 µM | 
71 | O=C(Nc1ccc(-n2cnnn2)cc1)C1CCCN1C(=O)Nc1ccc(Br)cc1 (stereo unspecified) | inactive | 
72 | Cn1nc(-c2ccc(Cl)cc2)c2cc(C(=O)NC3CC3)sc21 | inconclusive [inhibitor, partial curve] | 
73 | CCC1CCc2nc3sc(C(=O)Nc4ccc(F)cc4F)c(N)c3cc2C1 (stereo unspecified) | active: 8.2 µM | 
74 | CCOC(=O)c1cc(C)n(CC2CCC(C(=O)Nc3ccc(Cl)cc3)CC2)c1C (stereo unspecified) | active: 18.4 µM | 
75 | CCN(CC)CCCn1c2c(c(SCC(=O)N3CCCc4ccccc43)nc1=O)CCC2 |  | inconclusive: -7.08% [inhibitor]
76 | CN(Cc1ccccc1)C(=O)c1ccc(NC(=O)C2CCCN(C(=O)OC(C)(C)C)C2)cc1 (stereo unspecified) | inconclusive [inhibitor, single point] | 
